Consider 172 sequences from paper PMC6212790.

Some of the results follow. At the low end of the ranking the order means little.

For the test, the target named is T1, GST-Rok (full length) (UniProt O34857).
T1 sequence: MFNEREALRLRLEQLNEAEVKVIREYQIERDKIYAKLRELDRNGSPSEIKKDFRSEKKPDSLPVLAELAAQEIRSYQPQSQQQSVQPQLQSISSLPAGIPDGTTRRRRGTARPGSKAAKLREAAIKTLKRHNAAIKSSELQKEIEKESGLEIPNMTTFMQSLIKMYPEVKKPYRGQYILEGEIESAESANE
Description: protein binding microarray.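 Note: rank score from −0.5 (least bound) to 0.5 (best bound).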 To be noted: Rok is a gene silencer of Bacillus subtilis; high values mean tight binding; most listed sequences are background and not binding sites; double strand, one strand shown.
On to ATGAGTAA, for which the binding signal was found to be 0.16 E-score. The sequence ATTTTTAG gave a binding signal of 0.248 E-score. Consider AGAGCGAA, for which the binding signal is -0.177 E-score. Turning to CCCATATC, the binding signal is -0.0938 E-score. For CGCGTAGC, the binding signal was -0.0598 E-score. ATATTAAA came in with a binding signal of 0.377 E-score.

For the sequence CAATGGCA, the binding signal is -0.0269 E-score.

Consider ATGACAGA, for which the binding signal was -0.183 E-score.

With AGTAACCC, the binding signal was -0.217 E-score.

In the case of CCTTGTCA, the binding signal was -0.157 E-score. Under AGTTAAAT stands 0.317 E-score.

With CCCCCACC, the binding signal is -0.461 E-score. For ATTTGCGG, the binding signal came out at 0.0715 E-score. Turning to GACTGACA, the binding signal is -0.127 E-score. Take CCTTGGCC: the binding signal is -0.283 E-score. As to ACAATTAG, the binding signal is 0.193 E-score.

Sequence TAAGGGTA showed a binding signal of 0.0981 E-score. On to GAGACGTA, for which the binding signal is -0.2 E-score. In the case of CCGAAAGG, the binding signal was -0.324 E-score. Then GTGTCGTA, with 0.0847 E-score. Turning to TATGGTAA, the binding signal was 0.23 E-score. ATCGAACC had a binding signal of 0.0368 E-score.

As to CTAATTGC, the binding signal was 0.107 E-score. Sequence AGACGCTG registered a binding signal of -0.151 E-score. In turn, CTAAGAGC showed a binding signal of -0.28 E-score. Consider CGCGGCCC, for which the binding signal is -0.434 E-score. The sequence AACGCAAG had a binding signal of 0.0979 E-score.

ATTCACAG registered a binding signal of 0.0727 E-score.

As to GTCCCGCA, the binding signal is -0.196 E-score. AGACTGAA displayed a binding signal of 0.0238 E-score. With CATGTGGC, the binding signal is -0.127 E-score. GGAGGGCC came in with a binding signal of -0.442 E-score.

For CAATTGCA, the binding signal was -0.0876 E-score. AGTTTTCG returned a binding signal of 0.0505 E-score. Sequence CCGCCGCC had a binding signal of -0.294 E-score. Under CGGTATCA stands 0.193 E-score; under AGTGGTGC, -0.0666 E-score. As for GATTCGAC, the binding signal was -0.0211 E-score.

Sequence GTTCCCTA gave a binding signal of -0.17 E-score. In turn, ACAATGTG displayed a binding signal of 0.156 E-score.

The sequence ACGCACGT had a binding signal of -0.141 E-score.

As for AACGGCGC, the binding signal was -0.0478 E-score. Sequence TAGCGGCA returned a binding signal of 0.172 E-score. AAGATGAT yielded a binding signal of -0.00922 E-score. Turning to ACTTCTAC, the binding signal amounted to 0.286 E-score. With CAAATGGC, the binding signal amounted to 0.0767 E-score. In the case of AAGTCTCG, the binding signal is -0.172 E-score. For the sequence CACAATCG, the binding signal was -0.182 E-score. As for CACGAAGG, the binding signal is -0.164 E-score. Sequence CCTATCGC had a binding signal of -0.00357 E-score. The sequence ATTGTAGC yielded a binding signal of 0.16 E-score. Then CCACTCCC, with -0.201 E-score; and ATATAGTG, with 0.274 E-score; and AGACTAGC, with 0.0689 E-score.

AGGGTCGG displayed a binding signal of -0.403 E-score.

In turn, ACCTAGTG returned a binding signal of 0.0222 E-score. With AAACTTAG, the binding signal is -0.0212 E-score. The sequence CACTCACA yielded a binding signal of -0.053 E-score. Turning to CCTGGTCG, the binding signal is -0.0911 E-score. Regarding CATTTTAA, the binding signal was 0.0564 E-score. Sequence ACTGAAAA yielded a binding signal of 0.0802 E-score. As for CCTGAGTA, the binding signal was determined as 0.0962 E-score. On to CGCTGTCC, for which the binding signal is -0.247 E-score.

In turn, ACGAAGCT registered a binding signal of -0.0248 E-score. Under AAGGCCTT stands -0.239 E-score. Then GGTTAACA, with 0.231 E-score; and AGCGTAAA, with 0.133 E-score.

Turning to CGGGGGTC, the binding signal is -0.366 E-score. Take CCGGCGAC: the binding signal is -0.291 E-score. Under ATAGAGAT stands 0.0483 E-score. In turn, GATGCTCA yielded a binding signal of -0.15 E-score. As for CCGTTGGA, the binding signal is -0.325 E-score. With CGACTCGC, the binding signal was -0.318 E-score.

As to CCCAGGGG, the binding signal is -0.264 E-score.

The sequence ACTTGTTG returned a binding signal of 0.108 E-score. As to CGGTTCGC, the binding signal is -0.0662 E-score. CATTAGCA gave a binding signal of -0.0362 E-score.

CCAATGCA: the binding signal was -0.0984 E-score. For the sequence GAGTCGCC, the binding signal was -0.304 E-score. Then CTTGTTGC, with -0.0303 E-score. For the sequence GCGGTAAA, the binding signal was 0.137 E-score. Under AACACTGC stands 0.103 E-score; under ATCAGCAC, -0.092 E-score.

In turn, ACACATTC yielded a binding signal of 0.122 E-score.

GTTTAAAA yielded a binding signal of -0.112 E-score. Take ACGGTAGC: the binding signal is 0.139 E-score.

CTGTCAGC gave a binding signal of -0.305 E-score. In the case of ATGGGGGC, the binding signal was -0.349 E-score. AATAGAAC displayed a binding signal of 0.0621 E-score. Then CGCTCAGC, with -0.164 E-score; and ACTATGCC, with -0.0106 E-score. ACGCGACG: the binding signal was -0.0175 E-score. Turning to AGCTTAAC, the binding signal was -0.0992 E-score.

Take ATGTCATC: the binding signal is -0.00388 E-score. On to ATCATACA, for which the binding signal was determined as 0.208 E-score. In the case of CTGTGTGA, the binding signal is 0.103 E-score. On to CGAGCATC, for which the binding signal is -0.22 E-score.

With AGGTCTCG, the binding signal was -0.291 E-score. For ATGCATAG, the binding signal came out at 0.0635 E-score.

On to ATCTAAAC, for which the binding signal was 0.169 E-score.

Turning to ACCGGGGG, the binding signal is -0.301 E-score. For the sequence AGGATAGA, the binding signal was found to be 0.121 E-score. Under CACTCCTC stands -0.238 E-score. Then GTCCATCA, with -0.236 E-score.

On to CCGCTGTC, for which the binding signal is -0.289 E-score. Regarding AGAGATGC, the binding signal was -0.0534 E-score. In the case of GATACACC, the binding signal came out at 0.153 E-score.

Regarding GCAAGAAA, the binding signal was -0.0705 E-score. TGGTTCAA displayed a binding signal of -0.109 E-score. On to GCGTCCCC, for which the binding signal was -0.232 E-score. GATAATAC: the binding signal was 0.187 E-score. In turn, CCTCTTTA came in with a binding signal of -0.064 E-score.

For the sequence CTGCAGCC, the binding signal was -0.294 E-score. The sequence CAAACTGC returned a binding signal of 0.0339 E-score. With GAGTTCAC, the binding signal turned out to be 0.155 E-score. Take ATACCTAC: the binding signal came out at 0.351 E-score.

Take CTCTTTCC: the binding signal was -0.142 E-score. Then ACCCAGTG, with -0.124 E-score.

On to CGAAGCCC, for which the binding signal is -0.465 E-score.

As to AGAGGAAG, the binding signal is -0.152 E-score. Under ATTAATCA stands 0.232 E-score; under CCGCCGAC, -0.147 E-score. Then GGGATGAA, with 0.18 E-score.

Sequence CAATCAGG yielded a binding signal of 0.0817 E-score. ACAACCCC showed a binding signal of -0.355 E-score. Under GAGTGGGC stands -0.208 E-score; under CGCGGGAG, -0.307 E-score.

ATAATGGC yielded a binding signal of 0.0668 E-score. On to GCGCGCCA, for which the binding signal was -0.24 E-score.

ACTGTTGG: the binding signal is -0.000609 E-score. Sequence CCTGGCAC displayed a binding signal of -0.215 E-score. For CTATTCGA, the binding signal came out at 0.159 E-score. In the case of GCTGGACA, the binding signal is -0.201 E-score. Then GGTAGTTA, with 0.413 E-score.

In turn, AGGTTGAA came in with a binding signal of -0.0674 E-score. In the case of GTCCCCAA, the binding signal is -0.293 E-score.

Consider ACCGCATG, for which the binding signal was -0.0876 E-score.

For the sequence AGGCCAGG, the binding signal is -0.275 E-score. AAAGCGTC yielded a binding signal of -0.215 E-score. In turn, GAGGGGCC showed a binding signal of -0.375 E-score. Then CTTCGCCC, with -0.255 E-score. CATAGCGG gave a binding signal of -0.0781 E-score. Sequence CCGTAATA displayed a binding signal of 0.302 E-score. GCCCAGTA returned a binding signal of 0.0314 E-score. Consider GCAGATGC, for which the binding signal is -0.172 E-score. CGATCAAG gave a binding signal of -0.189 E-score. The sequence AATATGCC returned a binding signal of 0.0218 E-score. On to CATCTGGG, for which the binding signal was -0.0953 E-score. AGAGCTGG displayed a binding signal of -0.116 E-score. Sequence CCTCGAGG gave a binding signal of -0.194 E-score.

As for GGAGTGCA, the binding signal was -0.164 E-score. Then CCGCCGGA, with -0.153 E-score.

As to AGCTTCAT, the binding signal came to 0.0351 E-score. As to CTGAGTCA, the binding signal is -0.22 E-score.

ACGGCTTA: the binding signal was -0.0338 E-score. For the sequence AGTTATGC, the binding signal is 0.27 E-score. Then CATAGGAA, with 0.25 E-score.

Turning to CACACGCA, the binding signal is -0.151 E-score.

Sequence TCTCTTAA had a binding signal of -0.0839 E-score. Consider CTCGTTAA, for which the binding signal was -0.0604 E-score. Then CAGCGGCG, with -0.287 E-score.

Take GGGGCCGA: the binding signal was -0.272 E-score. ACCCCTCG had a binding signal of -0.238 E-score. CCCCAAAG yielded a binding signal of -0.204 E-score. AGACATAC came in with a binding signal of 0.125 E-score. GATCGGAA: the binding signal is -0.0506 E-score. The sequence ATCGAAAC registered a binding signal of 0.0448 E-score. On to CCGCAGCA, for which the binding signal was -0.21 E-score. GGTGCTAC gave a binding signal of -0.0663 E-score. For ATTCGAGC, the binding signal is -0.0666 E-score.

Turning to TCTAGAAA, the binding signal is 0.222 E-score. In turn, CAGCAAGA returned a binding signal of -0.0272 E-score.
